Data published in PubChem BioAssay AID2551 (National Center for Advancing Translational Sciences (NCATS), 2010).
Among all 310,000 compounds or so, about 17,000 (5.5%) were called active. Roughly 11% stayed inconclusive and do not appear here. Calls follow the shape of the dose curve; as a rule, active = well fitted inhibition curve with a large enough effect; inconclusive = small, poorly fitted or top-dose-only effect, or effect the other way; inactive = no such curve, though single readings can be large or run the other way. The entries are a selection whose mix differs from that of the whole data set. Where a structure was tested more than once in an assay, its records may differ in their call.

Biological target: Nuclear receptor ROR-gamma (Mus musculus) (UniProt P51450)
UniProt P51450, sequence (P51450 whole entry, looked up): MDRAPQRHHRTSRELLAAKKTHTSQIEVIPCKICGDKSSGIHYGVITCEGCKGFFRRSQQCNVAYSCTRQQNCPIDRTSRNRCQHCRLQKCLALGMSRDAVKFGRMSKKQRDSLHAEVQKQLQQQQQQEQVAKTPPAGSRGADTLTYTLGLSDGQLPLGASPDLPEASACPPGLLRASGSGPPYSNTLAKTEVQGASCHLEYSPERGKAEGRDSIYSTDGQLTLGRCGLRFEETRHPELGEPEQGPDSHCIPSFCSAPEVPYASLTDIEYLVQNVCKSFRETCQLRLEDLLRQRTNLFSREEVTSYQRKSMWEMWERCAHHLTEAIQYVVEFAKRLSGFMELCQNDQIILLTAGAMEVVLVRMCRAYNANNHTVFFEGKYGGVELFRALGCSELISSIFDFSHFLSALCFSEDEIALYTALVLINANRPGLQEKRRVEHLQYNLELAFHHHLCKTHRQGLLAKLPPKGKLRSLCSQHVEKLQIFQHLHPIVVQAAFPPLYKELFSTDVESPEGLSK
Assay: qHTS for inhibitors of ROR gamma transcriptional activity; also: nearly all actives have a fitted effect of over 60% in size
Conditions: Drosophila S2 Gal4-RORgamma UAS-luciferase reporter, 20 h; series mostly up to 53.6 µM; activity change, negative = inhibition: at the top concentration
Summary of the method: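 Schneider cells (Drosophila), stable Gal4 DBD–ROR gamma + UAS-luc; 1 hr cmpd preincubation; Cu2+ induction 700 uM final; 20 hr ambient; luminescence.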
% is scaled to controls: 0 for no effect and ±100 for the full control effect; potency is read from the fitted curve at half-maximal effect.

| SMILES | Potency | activity change, negative = inhibition |
| --- | --- | --- |
| C/C(CC(=O)Nc1ccc([N+](=O)[O-])cc1)=N\NC(=O)c1ccccc1O | active: 11.2 µM | – |
| CCCCOC(=O)C1[C@H]2C(=O)N(CCc3ccccc3)C[C@]23C=C[C@H]1O3 (some centres not stated) | – | inactive: 2.49% |
| Cc1ccc(C2c3[nH]c4ccccc4c3C[C@H]3C(=O)N(c4ccccc4C(=O)N4CCC[C@@H]4C(=O)O)C(=O)N23)cc1 (some centres not stated) | – | inactive: 19.1% |
| C#CCNC(=O)C1=C[C@H](c2ccccc2)[C@@H](CCCO)[C@H](OCC)O1 | – | inactive: 11.6% |
| COc1ccc(NC(=S)/N=C(\N)Nc2nc(C)c3ccccc3n2)cc1 | active: 1 µM | – |
| CCC(NC(=S)NC1CCCCC1)c1ccccc1 (configuration not stated) | active: 3.16 µM | – |
| O=C1/C(=C\c2cccnc2)SC(=S)N1c1ccc(F)cc1 | – | inactive: 14.9% |
| CCCC1OC2CC3C4CCC5=CC(=O)C=CC5(C)C4C(O)CC3(C)C2(C(=O)CO)O1 (configuration not stated) | – | inactive: -37.5% |
| O=C(CCCN1C(=O)/C(=C\c2cccc(Br)c2)SC1=S)Nc1cccnc1 | – | inactive: 0.881% |
| O=C(C1=C[C@@H](c2ccc(Br)cc2)C[C@@H](OCCCCO)O1)N1CCN(Cc2ccccc2)CC1 | – | inactive: -43.2% |
| CNCC(O)c1ccc(O)c(O)c1 (configuration not stated) | – | inactive: 8.72% |
| O=C(NCc1nc2ccccc2[nH]1)C1=C[C@@H](C2CCCCC2)C[C@@H](OCc2ccc(CO)cc2)O1 | – | inactive: -37.9% |
| CCCCCCC(=O)Cc1cc(OC)c(OC)cc1C=C(C(=O)OCC)C(=O)OCC | – | inactive: -9.84% [at 10 µM] |
| O=[N+]([O-])C(/C=C(/Cl)[N+](=O)[O-])=C(N1CCCCC1)N1CCCCC1 | – | inactive: -38.7% |
| COc1ccc(Cl)cc1C(=O)NCCc1ccc(S(=O)(=O)NC(=O)NC2CCCCC2)cc1 | inactive | – |
| COc1cc2c3nnc(-c4ccc(F)cc4)c-3cn(Cc3ccc(C)cc3)c2cc1OC | active: 5.01 µM | – |
| CC#C[C@]1(O)CC[C@H]2[C@@H]3CCC4=CC(=O)CCC4=C3[C@@H](c3ccc(N(C)C)cc3)C[C@@]21C | – | inactive: -29.2% |
| Cc1ccc(-c2cc(C3C4C=CCCC4(C)C(=O)N3Cc3ccccc3)ccc2F)cc1 (configuration not stated) | – | inactive: 14.5% |
| CC(C)c1nnc(NC(=O)CSc2nnc(-c3ccco3)o2)s1 | active: 11.2 µM | – |
| Cc1c(Cl)cccc1NC(=S)NCCC(C)C | active: 4.47 µM | – |
| COCC(=O)N/N=C\c1ccc(OC/C=C/c2ccccc2)c(OC)c1 | active: 12.6 µM | – |
| C=C1C(=O)O[C@H]2[C@H]1[C@@H](O)CC(=C)[C@@H]1CC(=O)[C@@H](C)[C@H]21 | active: 12.6 µM | – |
| Cn1cc[nH]c1=S | inactive | – |

| SMILES | Potency | activity change, negative = inhibition |
| --- | --- | --- |
| CC1=NS(=O)(=O)c2cc(Cl)ccc2N1 | inactive | – |
| COc1cccc(OC)c1C(=O)NC(=S)N1CCN(c2ccc(C(F)(F)F)cc2[N+](=O)[O-])CC1 | active: 7.08 µM | – |
| COc1cc([C@@H]2c3cc4c(cc3[C@@H](O[C@@H]3O[C@H]5CO[C@@H](C)O[C@@H]5[C@@H](O)[C@H]3O)[C@@H]3COC(=O)[C@@H]23)OCO4)cc(OC)c1O | – | inactive: -30.7% |
| COc1ccc(Br)cc1[C@H]1[C@H]2C=CC[C@@H](C)[C@@H]2C(=O)N1Cc1ccccc1 | – | inactive: 5.59% |
| Cc1nn(C)c(Cl)c1S(=O)(=O)N[C@@H](c1ccccc1)[C@]1(C)C[C@H]1[C@@H](C)C(=O)Nc1ccc2ccccc2c1 | – | inactive: 35.6% |
| COC(=O)[C@H]1C[C@@H]1[C@H](NC(=O)c1ccccc1)c1ccccc1 | – | inactive: -30.5% |
| COC(=O)[C@@]1(Cc2ccc(OC)cc2)[C@H]2c3cc(C(=O)N(C)C)[nH]c3C[C@H]2CN1C(=O)c1ccccc1 | – | inactive: 10.7% |
| Cc1nc2sccn2c(=O)c1CCN1CCC(=C(c2ccc(F)cc2)c2ccc(F)cc2)CC1 | inactive | – |
| CC(C)NC(=O)[C@@H]1C[C@@]1(C)[C@@H](NC(=O)OCc1ccccc1)c1ccccc1 | – | inactive: 1.45% |
| CCOC(=O)[C@@H]1[C@H]2COc3ccc(Br)cc3[C@H]2N2C(=O)N(c3cccc(F)c3)C(=O)[C@]12C | – | inactive: -21.2% |
| Cc1ccc(SC[C@H](c2ccccc2)N2CCN(CCc3ccccc3)CCC2=O)cc1 | – | inactive: 34.1% |
| Cc1cc(CNC(=O)[C@H]2C[C@@H]2[C@H](NP(=O)(c2ccccc2)c2ccccc2)c2ccccc2)nn1C | – | inactive: 12.6% |
| COc1ccc2c(c1)O[C@@H](c1ccc3c(c1)OCO3)[C@H](OC(=O)NCc1ccco1)C2=O | – | inactive: 35.5% |
| C/C(=N\NC(=S)NCc1ccccc1)c1ccccc1F | active: 1.26 µM | – |
| CCCCCn1c(=N)n(CC(O)COc2ccccc2OC)c2ccccc21 (configuration not stated) | – | inactive: 0.342% |
| Nc1ccc(C(=O)O)c(O)c1 | inactive | – |
| O=C1C2C(c3ccccc3)CC=CC2C(c2ccoc2)N1Cc1ccccc1 (configuration not stated) | – | inactive: 3.35% |
| C[C@H]1CC[C@@]2(O[C@H](CCO)C[C@@H](O)[C@@H]2O)O1 | – | inactive: -15.9% |
| O=C1C=C(c2ccccc2)OC(=O)C1C(=O)c1ccccc1 (configuration not stated) | – | inactive: -8.94% |
| COc1ccc(C[C@H]2CN3C(=NC[C@H]3Cc3ccccc3)N2CCNC(=O)CCC2CCCCC2)cc1 | – | inactive: -35.8% |
| COc1cc(/C=C2/SC(=O)NC2=O)ccc1Oc1ccc([N+](=O)[O-])cc1[N+](=O)[O-] | – | inactive: -28% |
| COc1cccc(C2c3[nH]c4ccccc4c3CCN2Cc2cccc(C)n2)c1 (configuration not stated) | active: 12.6 µM | – |
| Nc1nc(NCC2CCC(CNS(=O)(=O)c3cccc4ccccc34)CC2)nc2ccccc12 (configuration not stated) | – | inactive: -32.9% |

| SMILES | Potency | activity change, negative = inhibition |
| --- | --- | --- |
| O=C(Nc1ccccc1)C1=C[C@H](c2ccc(Br)cc2)C[C@H](OCc2ccc(CO)cc2)O1 | – | inactive: 32.4% |
| CC(=O)N[C@H](c1ccccc1)[C@@]1(C)C[C@@H]1[C@@H](C)C(=O)Nc1ccc2ccccc2c1 | – | inactive: 31.6% |
| c1ccc(-c2nc3ccccc3s2)nc1 | – | inactive: -1.46% |
| C[C@]1(C(=O)NCCc2c[nH]c3ccccc23)C=C[C@@H](Cc2ccccc2)N1C(=O)c1ccccc1 | – | inactive: -37% |
| C#CCn1c(=NC(=O)c2ccc(Cl)s2)sc2cccc(OC)c21 | active: 2.24 µM | – |
| Cc1cccc(N=C2NC(=O)/C(=C\c3cccs3)S2)c1 | – | inactive: 19.5% |
| CCN1CCC[C@H]1CNC(=O)c1cc(S(N)(=O)=O)ccc1OC | inactive | – |
| CCCCCCCCCCCC(=O)O | – | inactive: 4.68% |
| CC[C@@H]1CC=C[C@H]2[C@H]1C(=O)N(Cc1ccccc1)[C@H]2c1cc(C)ccc1F | – | inactive: 36.7% |
| CCOC(=O)[C@@H]1[C@H]2COc3cc(OC)ccc3[C@H]2N2C(=O)N(c3ccc(C(F)(F)F)cc3)C(=O)[C@@]12C | – | inactive: -0.201% |
| C=C1CCN([C@@H](C)C(=O)OCc2ccc(C)cc2)S(=O)(=O)c2ccccc21 | – | inactive: 8.3% |
| Clc1ccccc1C(c1ccccc1)(c1ccccc1)n1ccnc1 | – | inactive: -35.6% [at 2.98 µM] |
| CN(c1cccc2cccnc12)S(=O)(=O)c1ccccc1 | – | inactive: -22% |
| Cc1ccc(C(NC(=O)C(C)C)c2cc([N+](=O)[O-])c3cccnc3c2O)cc1 (configuration not stated) | active: 2.24 µM | – |
| CC[C@]1(O)C[C@@H]2CN(CCc3c([nH]c4ccccc34)[C@@](C(=O)OC)(c3cc4c(cc3OC)N(C)[C@H]3[C@@](O)(C(=O)OC)[C@H](OC(C)=O)[C@]5(CC)C=CCN6CC[C@]43[C@@H]65)C2)C1 | – | inactive: 34.9% |
| CCOC(=O)c1cc(-c2cccs2)nc2c1c(C)nn2-c1ccccn1 | active: 1.78 µM | – |
| O=C(NN1C(=O)/C(=C/c2ccc(O)c([N+](=O)[O-])c2)SC1=S)c1ccccc1Cl | – | inactive: 20.7% |
| COc1ccc(-n2c(=S)[nH]c3ccccc32)cc1 | active: 4.47 µM | – |
| CC(=O)Nc1cccc(C2=CC(c3ccco3)n3ncnc3N2)c1 (configuration not stated) | active: 6.31 µM | – |
| Cc1ccc(OCc2ccc(C(=O)Nc3nc4ccccc4n3C)o2)c([N+](=O)[O-])c1 | active: 5.62 µM | – |
| C[C@@H](C(=O)O)[C@H]1C[C@]1(C)[C@H](NC(=O)OCc1ccccc1)c1ccccc1 | – | inactive: 26.2% |
| C#CCNC(=O)C1=C[C@@H](C2CCCCC2)C[C@@H](OCc2ccc(CO)cc2)O1 | – | inactive: 40.9% |
| COc1ccc2cc1Oc1ccc(cc1)C[C@H]1c3c(cc4c(c3Oc3cc5c(cc3OC)CCN(C)[C@@H]5C2)OCO4)CCN1C | – | inactive: -33.4% |

| SMILES | Potency | activity change, negative = inhibition |
| --- | --- | --- |
| COc1ccc(CC(=O)c2ccc(O)cc2O)cc1 | – | inactive: -9.63% |
| COC(=O)[C@H](Cc1ccccc1)NC(=O)O[C@@H]1C(=O)c2cc(Br)ccc2O[C@H]1c1cccc(OC)c1 | – | inactive: 25.3% |
| COc1ccc(CC(N)C(=O)NC2C(CO)OC(n3cnc4c(N(C)C)ncnc43)C2O)cc1 (configuration not stated) | – | inactive: -4.31% |
| CCN(CC)CCC(c1ccc(N(C)C)cc1)c1c(OC)cc(OC)c2c(-c3ccccc3)cc(=O)oc12 (configuration not stated) | – | inactive: 13.6% |
| O=C(NC1=NCCS1)c1cc(-c2cccs2)nc2ccccc12 | active: 25.1 µM | – |
| O=C(c1ccc(OCCN2CCCCC2)cc1)c1c(-c2ccc(O)cc2)sc2cc(O)ccc12 | inactive | – |
| COC(=O)[C@@]1(Cc2ccc(OC)cc2)[C@H]2c3cc(C(=O)N(C)C)n(Cc4ccc(OC(F)(F)F)cc4)c3C[C@H]2CN1C(=O)c1ccccc1 | – | inactive: 41% |
| O=C(CC12CC3CC(CC(C3)C1)C2)NC(=S)NCc1ccccc1 | active: 2 µM | – |
| CCOC(=O)[C@@H]1[C@H]2COc3cc(OC)ccc3[C@H]2N2C(=O)N(c3ccc(C)cc3)C(=O)[C@@]12C | – | inactive: -23.7% |
| O=C(C1=C[C@H](C2CC2)C[C@H](OCc2ccc(CO)cc2)O1)N1CCOCC1 | – | inactive: -12.4% |
| COc1ccc(C(=O)NNC(=O)c2ccccn2)cc1 | active: 7.08 µM | – |
| COc1ccccc1OCCNCC(O)COc1cccc2[nH]c3ccccc3c12 (configuration not stated) | active: 1 µM | – |
| CCCCCCNC(=O)N1C/C=C\C(c2ccc(OC)cc2)N(Cc2ccc(F)cc2)C(=O)C1 (configuration not stated) | – | inactive: -10.4% |
| COC(=O)[C@@]1(Cc2ccc(OC)cc2)[C@H]2c3cc(C(=O)N4CCCC4)n(CCc4c[nH]c5ccc(O)cc45)c3C[C@H]2CN1C(=O)c1ccccc1 | – | inactive: 2.37% |
| Clc1ccccc1CN1CCN(/N=C/C=C\c2ccco2)CC1 | – | inactive: 15.2% |
| O=C(NC1CC1)C1=C[C@H](c2ccc3c(c2)OCO3)C[C@H](OCc2ccc(CO)cc2)O1 | – | inactive: 21.6% |
| Cc1ccccc1NC(=S)Nc1cccc2cnccc12 | active: 10 µM | – |
| COc1ccc(C2c3ccc4ccccc4c3Oc3ncn(CCCO)c(=N)c32)cc1 (configuration not stated) | active: 3.98 µM | – |
| CCC1=C(OC(=O)N(CC)CC)N2C(=O)OC(=NCCc3c[nH]c4ccccc34)[C@]2(C)[C@H]2C1=CC[C@H]1C(=O)N(CC(=O)OC)C(=O)[C@H]12 | – | inactive: 18.3% |
| NC(=S)NN=C1c2cc(OCCN3CCOCC3)ccc2-c2ccc(OCCN3CCOCC3)cc21 | active: 1.26 µM | – |
| COc1ccc(C2c3ccc4ccccc4c3Oc3ncn(CCN(C)C)c(=N)c32)cc1 (configuration not stated) | active: 31.6 µM | – |
| COc1ccc(O[C@H]2C=C[C@@H](c3ccccc3)O[C@@H]2CO/N=C(\C)CCN2CCCCc3nc(C)c(C)cc32)cc1 | – | inactive: -3.8% [at 10 µM] |
| O=Cc1ccc(-c2nc3ccccc3s2)o1 | active: 4.47 µM | – |
